Results on 39 molecules are retold here after PubChem BioAssay (NCATS).

The other results are listed elsewhere or left out. Shown are side measurements of this screen, not its main read-out; they come without a call. Compounds called inactive in the main read-out are mostly missing here. The note in brackets gives the kind of curve behind each potency; many fits are weak. Numbered stars: 1 amine (or outer) side, 2 acyl side, 3 side chain; on linkers, the order of the positions; unused ones are H or OH. Bridge positions count the residues as written; N and C are the ends. Square brackets hold non-standard residues; d marks the D form. Peptide text beside a SMILES is read from it. I, II: the chains in the order shown. Actinocin(9to1) = Cc1c2oc3c(C)ccc(C(=O)[*:1])c3nc-2c(C(=O)[*:2])c(N)c1=O; aThr = C[C@H](O)[C@H](N)C(=O)O; NMeV = CN[C@H](C(=O)O)C(C)C; Sar = CNCC(=O)O

This experiment can be described thus: qHTS Assay for Lipid Storage Modulators (AID 1519). The conditions noted are these: Drosophila S3 cells, BODIPY lipid droplet/cell ratio, laser cytometry, cells loaded with oleic acid; for AC50: measured here: lipid (BODIPY) channel AC50. The method, boiled down: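 Cells seeded at 5,000 per well were treated with compounds over a concentration series and loaded with oleic acid (400 uM, as added). Lipid droplet fluorescence (488 nm excitation, 500-530 nm channel) was read by laser-scanning cytometry and normalized to 20 uM Triacsin C.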
(Quantitative high-throughput screening tests each substance at several concentrations.)

Setting [1] is: measured here: cell count channel max response.
[2] abbreviates: measured here: lipid channel max response.
Tags tell the direction and shape of the fitted curve.

As to `COc1ccc(/C=C/C(=O)c2ccc(C)s2)cc1`, the max response stood at 89.1% under setting [1] and 113% under setting [2].
In the case of `Cc1cc(C)cc(C(=O)N(C)[C@H](Cc2ccc(-c3ccccc3)cc2)C(=O)N[C@@H](Cc2c[nH]c3ccccc23)C(=O)O)c1`, the max response was 52.7% under setting [1] and 68% under setting [2].
As to `C[C@H]1CC2[C@@H]3CCC4=CC(=O)C=C[C@]4(C)[C@@]3(Cl)[C@@H](O)C[C@]2(C)[C@@]1(O)C(=O)CO` (stereo partly specified), the max response by setting is: under setting [1], 24.2%; under setting [2], 17.2%.
As to `CC[C@]1(O)C[C@@H]2CN(CCc3c([nH]c4ccccc34)[C@](C(=O)OC)(c3cc4c(cc3OC)N(C)[C@H]3[C@](O)(C(=O)OC)[C@@H](C(=O)OC)[C@@]5(CC)C=CCN6CC[C@@]43[C@@H]65)C2)C1`, the max response reads like this: under setting [1], 39.8%; under setting [2], 40.6%.
With `COc1ccc2c(c1)CCC1C2CC[C@@]2(C)C1CC[C@@H]2NCCCCCCN1C(=O)C=CC1=O` (stereo partly specified), the max response under setting [1] is 55% and the max response under setting [2] came to 52.2%.
On to `Nc1c[n+](N2CCOCC2)no1`, for which the max response is, setting by setting: under setting [1], 21.7%; under setting [2], 31.5%.
As for `C1CCN2CC3CC(CN4CCCC[C@@H]34)C2C1` (stereo partly specified), the max response was -2.25% under setting [1] and -0.575% under setting [2].
Regarding `N=C(N)c1ccc(N)cc1`, the max response is 45.3% under setting [1] and 45.3% under setting [2].
With `COc1ccc2[nH]cc(CCNc3ncncc3-c3ccoc3)c2c1`, the max response reads like this: under setting [1], -17.4%; under setting [2], -38.1%.
For the molecule `CC(=O)OCC(=O)[C@@]1(O)CC[C@H]2[C@@H]3CCC4=CC(=O)CC[C@]4(C)[C@H]3C(=O)C[C@@]21C`, the max response was found to be 40.1% under setting [1] and 37.7% under setting [2].
With `CSCCC(NC=O)C(=O)NC(CC(C)C)C(=O)NC(Cc1ccccc1)C(=O)O` (stereo unspecified), the max response under setting [1] is 27.9% and the max response under setting [2] was found to be 39.9%.
As to `N[C@H](Cc1ccc(O)c(O)c1)C(=O)O`, the max response reads like this: under setting [1], 58.6%; under setting [2], 58.4%.
The corresponding values for `Cc1ccc(S(=O)(=O)NC(=O)NN2CCCCCC2)cc1` are 49.3% and 46.7%.
As to `CC(=O)OC(C)C[N+](C)(C)C` (stereo unspecified), the max response stood at 48.2% under setting [1] and 51.2% under setting [2].
As for `COc1cccc(-c2ccc3ncnc(NC4CC4)c3c2)c1`, the max response under setting [1] was -19.7% and the max response under setting [2] was -34.4%.
`C=C1C(=O)OC2C1CC/C(C)=C/CCC1(C)OC21` (stereo unspecified): the max response under setting [1] was -19% and the max response under setting [2] is -57.5%.
`CN(C)c1ccc(/C=C2/C(=O)Nc3ccccc32)cc1`: the max response under setting [1] came to 9.9% and the max response under setting [2] is -13.6%.
In the case of `CC(C)=CCC/C(C)=C/CC/C(C)=C/CSc1ccccc1C(=O)O`, the max response stood at 55.9% under setting [1] and 56.3% under setting [2].
The corresponding values for `O=C(O)CC1CCCc2ccccc2C1O` (stereo unspecified) are 5.41% and 7.79%.
As to `N[C@@H](Cc1cc(CP(=O)(O)O)cc(-c2ccccc2Cl)c1)C(=O)O`, the max response is, setting by setting: under setting [1], 28.7%; under setting [2], 32.4%.
In the case of `Cc1c2oc3c(C)ccc(C(=O)N[C@@H]4C(=O)N[C@@H](C(C)C)C(=O)N5CCC[C@@H]5C(=O)N(C)CC(=O)N(C)[C@@H](C(C)C)C(=O)O[C@H]4C)c3nc-2c(C(=O)N[C@@H]2C(=O)N[C@@H](C(C)C)C(=O)N3CCC[C@@H]3C(=O)N(C)CC(=O)N(C)[C@@H](C(C)C)C(=O)O[C@H]2C)c(N)c1=O` (I: [aThr]V[dP][Sar][NMeV] / II: [aThr]V[dP][Sar][NMeV]; ester I:1-I:C, II:1-II:C; linker I:N-II:N via Actinocin(9to1)), the max response was determined as 72.3% under setting [1] and 26.6% under setting [2].
Take `N[C@H](C(=O)O)[C@H](O)C(=O)O`: the max response stood at 23.9% under setting [1] and 32.2% under setting [2].
Take `COCCOC(=O)C1=C(C)NC(C)=C(C(=O)OC(C)C)[C@@H]1c1cccc([N+](=O)[O-])c1`: the max response under setting [1] came to 56.7% and the max response under setting [2] turned out to be 72.1%.
Consider `OC[C@H]1O[C@@H](n2cnc3c(NCc4ccccc4)ncnc32)[C@H](O)[C@@H]1O`, for which the max response was found to be 51.2% under setting [1] and 68.8% under setting [2].
Turning to `CC(=O)Nc1nnc(S(N)(=O)=O)s1`, the max response by setting is: under setting [1], 57.7%; under setting [2], 55.3%.
The corresponding values for `C[C@@H](NCc1cc(Br)cc2[nH]c(=O)c(=O)[nH]c12)P(=O)(O)O` are 4.05% and 8%.
For `CCCC(=O)NCCc1c2n(c3ccc(OC)cc13)Cc1ccccc1-2`, the max response by setting is: under setting [1], -66.9%; under setting [2], -68.6%.
Regarding `Nc1cc(Cl)c(NC2=NCCN2)c(Cl)c1`, the max response stood at 43.2% under setting [1] and 42.9% under setting [2].
With `Cc1nc2c(O)cccc2c(=O)[nH]1`, the max response runs as follows: under setting [1], 103%; under setting [2], 131%.
The corresponding values for `C[C@@H]1c2ccccc2CN1CC1=NCCN1` are 64.7% and 92%.
The corresponding values for `COc1cc(/C=C/C(=O)c2cccs2)cc(OC)c1OC` are 60.9% and -2.99%.
The corresponding values for `COc1ccc(/C=C/C(=O)c2cccs2)c(OC)c1` are 59% and 44.4%.
For the molecule `N[C@@H](Cn1ccc(=O)n(Cc2ccccc2C(=O)O)c1=O)C(=O)O`, the max response runs as follows: under setting [1], 26.8%; under setting [2], 32.8%.
Turning to `O=c1c(-c2ccc(F)c(F)c2)nc2cncnc2n1Cc1ccc(F)cc1`, the max response was -0.714% under setting [1] and -32.7% under setting [2].
Consider `CC(=O)SCC[N+](C)(C)C`, for which the max response was 57.7% under setting [1] and 58% under setting [2].
Regarding `COc1ccc(OC)c2c(=S)c3ccccc3[nH]c12`, the max response is, setting by setting: under setting [1], 18.6%; under setting [2], 10.8%.
`CC1CC[C@@]23CCC4(C)[C@@]5(C)CCC6C(C)(C)C(=O)CC[C@@]6(C)C5C=C[C@@]4(OC2=O)C3C1C` (stereo partly specified): the concentration at half-maximal activity (AC50) is 35.5 µM [rising, single point]. Besides, under setting [1], the max response is 22.9%. Under setting [2], the max response is 33.7%.
Consider `COc1ccc(-c2nc3cnc(N4CCOCC4)nc3n(CCc3ccccc3)c2=O)cc1`, for which the AC50 is 0.794 µM [rising, partial curve, poor fit]. For the same molecule, the max response under setting [1] was 12.9%. Moreover, the max response under setting [2] was 6.54%.
Regarding `O=C(c1cnccn1)N1CCC2(CCCN(c3ccncc3)C2)CC1`, the concentration at half-maximal activity (AC50) is 20 µM [rising, single point]. Moreover, the max response under setting [1] came to 27.1%. For the same molecule, the max response under setting [2] is 34.3%.

A word on the AC50: it is the midpoint of the concentration-response curve, whichever way the signal moves.
